# This is one part of the list.
# B1: rCNL (Clitocybe nebularis), B2ZRS9 (protein)
# chain: SITPGTYNITNVAYTNRLIDLTGSNPAENTLIIGHHLNKTPSGYGNQQWTLVQLPHTTIYTMQAVNPQSYVRVRDDNLVDGAALVGSQQPTPVSIESAGNSGQFRIKIPNLGLALTLPSDANSTPIVLGEVDETSTNQLWAFESVSAV
# How the values were obtained:
# Experiment in all cases: glycan array binding signal (z-score within array); higher = stronger binding
# Conditions in all cases: glycan notation: IUPAC condensed, linker removed
# [1] = target: Gal(a1-3)Gal(b1-3)GlcNAc(b1-2)Man
# How it was run: (§1)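 The binding signal is a Z-score computed within each array. Data were drawn from 3228 arrays in the Consortium for Functional Glycomics database, restricted to those with a known protein sequence. Scores were averaged over arrays of the same protein sequence at different concentrations or buffers, and over linkers, and negative values can be taken as non-binding.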
# [2] = target: Gal(a1-3)Gal(b1-3)GlcNAc(b1-2)Man(a1-3)[Gal(a1-3)Gal(b1-3)GlcNAc(b1-2)Man(a1-6)]Man(b1-4)GlcNAc(b1-4)GlcNAc
# How it was run: as §1
# [3] = target: Gal(a1-3)Gal(b1-3)GlcNAc(b1-3)GalNAc
# How it was run: as §1
# [4] = target: Gal(a1-3)Gal(b1-3)GlcNAc(b1-6)GalNAc
# How it was run: as §1
# [5] = target: Gal(a1-3)Gal(b1-3)[Fuc(a1-4)]GlcNAc(b1-2)Man(a1-3)[Gal(a1-3)Gal(b1-3)[Fuc(a1-4)]GlcNAc(b1-2)Man(a1-6)]Man(b1-4)GlcNAc(b1-4)GlcNAc
# How it was run: as §1
# [6] = target: Gal(a1-3)Gal(b1-4)Glc
# How it was run: as §1
# [7] = target: Gal(a1-3)Gal(b1-4)GlcNAc
# How it was run: as §1
# [8] = target: Gal(a1-3)Gal(b1-4)GlcNAc(b1-2)Man
# How it was run: as §1
# [9] = target: Gal(a1-3)Gal(b1-4)GlcNAc(b1-2)Man(a1-3)[Gal(a1-3)Gal(b1-4)GlcNAc(b1-2)Man(a1-6)]Man(b1-4)GlcNAc(b1-4)GlcNAc
# How it was run: as §1
# [10] = target: Gal(a1-3)Gal(b1-4)GlcNAc(b1-3)GalNAc
# How it was run: as §1
# [11] = target: Gal(a1-3)Gal(b1-4)GlcNAc(b1-6)GalNAc
# How it was run: as §1
# [12] = target: Gal(a1-3)Gal(b1-4)[Fuc(a1-3)]GlcNAc
# How it was run: as §1
# [13] = target: Gal(a1-3)Gal(b1-4)[Fuc(a1-3)]GlcNAc(b1-2)Man(a1-3)[Gal(a1-3)Gal(b1-4)[Fuc(a1-3)]GlcNAc(b1-2)Man(a1-6)]Man(b1-4)GlcNAc(b1-4)GlcNAc
# How it was run: as §1
# [14] = target: Gal(a1-3)GalNAc
# How it was run: as §1
# [15] = target: Gal(a1-3)[Gal(a1-4)]Gal(b1-4)GlcNAc
# How it was run: as §1
# [16] = target: Gal(a1-4)Gal(b1-3)GlcNAc(b1-2)Man(a1-3)[Gal(a1-4)Gal(b1-3)GlcNAc(b1-2)Man(a1-6)]Man(b1-4)GlcNAc(b1-4)GlcNAc
# How it was run: as §1
# [17] = target: Gal(a1-4)Gal(b1-4)Glc
# How it was run: as §1
# [18] = target: Gal(a1-4)Gal(b1-4)GlcNAc
# How it was run: as §1
# [19] = target: Gal(a1-4)Gal(b1-4)GlcNAc(b1-2)Man(a1-3)[Gal(a1-4)Gal(b1-4)GlcNAc(b1-2)Man(a1-6)]Man(b1-4)GlcNAc(b1-4)GlcNAc
# How it was run: as §1
# [20] = target: Gal(a1-4)Gal(b1-4)GlcNAc(b1-3)Gal(b1-4)Glc
# How it was run: as §1
# [21] = target: Gal(a1-4)GlcNAc
# How it was run: as §1
# [22] = target: Gal(a1-6)Glc
# How it was run: as §1
# [23] = target: Gal(b1-2)Gal
# How it was run: as §1
# [24] = target: Gal(b1-3)Gal
# How it was run: as §1
# [25] = target: Gal(b1-3)Gal(b1-4)GlcNAc
# How it was run: as §1
# [26] = target: Gal(b1-3)Gal(b1-4)GlcNAc(b1-2)Man(a1-3)[Gal(b1-3)Gal(b1-4)GlcNAc(b1-2)Man(a1-6)]Man(b1-4)GlcNAc(b1-4)GlcNAc
# How it was run: as §1
# [27] = target: Gal(b1-3)GalNAc
# How it was run: as §1
# [28] = target: Gal(b1-3)GalNAc(a1-3)[Fuc(a1-2)]Gal(b1-4)Glc
# How it was run: as §1
# [29] = target: Gal(b1-3)GalNAc(a1-3)[Fuc(a1-2)]Gal(b1-4)GlcNAc
# How it was run: as §1
# [30] = target: Gal(b1-3)GalNAc(b1-3)Gal
# How it was run: as §1
# [31] = target: Gal(b1-3)GalNAc(b1-3)Gal(a1-4)Gal(b1-4)Glc
# How it was run: as §1
# [32] = target: Gal(b1-3)GalNAc(b1-4)Gal(b1-4)Glc
# How it was run: as §1
# [33] = target: Gal(b1-3)GalNAc(b1-4)[Neu5Ac(a2-3)]Gal(b1-4)Glc
# How it was run: as §1
# [34] = target: Gal(b1-3)GlcNAc
# How it was run: as §1
# [35] = target: Gal(b1-3)GlcNAc(a1-3)Gal(b1-4)GlcNAc
# How it was run: as §1
# [36] = target: Gal(b1-3)GlcNAc(a1-6)Gal(b1-4)GlcNAc
# How it was run: as §1
# [37] = target: Gal(b1-3)GlcNAc(b1-2)Man
# How it was run: as §1
# [38] = target: Gal(b1-3)GlcNAc(b1-2)Man(a1-3)[Gal(b1-3)GlcNAc(b1-2)Man(a1-6)]Man(b1-4)GlcNAc(b1-4)GlcNAc
# How it was run: as §1
# [39] = target: Gal(b1-3)GlcNAc(b1-2)Man(a1-3)[Gal(b1-3)GlcNAc(b1-2)Man(a1-6)]Man(b1-4)GlcNAc(b1-4)[Fuc(a1-6)]GlcNAc
# How it was run: as §1
# [40] = target: Gal(b1-3)GlcNAc(b1-2)Man(a1-3)[GlcNAc(b1-4)][Gal(b1-3)GlcNAc(b1-2)Man(a1-6)]Man(b1-4)GlcNAc(b1-4)GlcNAc
# How it was run: as §1
# [41] = target: Gal(b1-3)GlcNAc(b1-2)[Gal(b1-3)GlcNAc(b1-6)]Man(a1-6)[Gal(b1-3)GlcNAc(b1-2)Man(a1-3)]Man(b1-4)GlcNAc(b1-4)GlcNAc
# How it was run: as §1
# [42] = target: Gal(b1-3)GlcNAc(b1-3)Gal(b1-3)GlcNAc
# How it was run: as §1
# [43] = target: Gal(b1-3)GlcNAc(b1-3)Gal(b1-4)Glc
# How it was run: as §1
# [44] = target: Gal(b1-3)GlcNAc(b1-3)Gal(b1-4)GlcNAc
# How it was run: as §1
# [45] = target: Gal(b1-3)GlcNAc(b1-3)Gal(b1-4)GlcNAc(b1-2)Man(a1-3)[Gal(b1-3)GlcNAc(b1-3)Gal(b1-4)GlcNAc(b1-2)Man(a1-6)]Man(b1-4)GlcNAc(b1-4)GlcNAc
# How it was run: as §1
binder,measurement,setting,value
B1,glycan array binding signal (z-score),[1],-0.224
same,glycan array binding signal (z-score),[2],-0.252
same,glycan array binding signal (z-score),[3],-0.217
same,glycan array binding signal (z-score),[4],-0.212
same,glycan array binding signal (z-score),[5],-0.27
same,glycan array binding signal (z-score),[6],-0.199
same,glycan array binding signal (z-score),[7],-0.098
same,glycan array binding signal (z-score),[8],-0.216
same,glycan array binding signal (z-score),[9],-0.218
same,glycan array binding signal (z-score),[10],-0.129
same,glycan array binding signal (z-score),[11],-0.175
same,glycan array binding signal (z-score),[12],-0.3
same,glycan array binding signal (z-score),[13],-0.266
same,glycan array binding signal (z-score),[14],-0.295
same,glycan array binding signal (z-score),[15],-0.292
same,glycan array binding signal (z-score),[16],-0.187
same,glycan array binding signal (z-score),[17],-0.261
same,glycan array binding signal (z-score),[18],-0.276
same,glycan array binding signal (z-score),[19],-0.182
same,glycan array binding signal (z-score),[20],-0.089
same,glycan array binding signal (z-score),[21],-0.286
same,glycan array binding signal (z-score),[22],-0.302
same,glycan array binding signal (z-score),[23],-0.296
same,glycan array binding signal (z-score),[24],-0.303
same,glycan array binding signal (z-score),[25],0.348
same,glycan array binding signal (z-score),[26],0.083
same,glycan array binding signal (z-score),[27],-0.273
same,glycan array binding signal (z-score),[28],0.203
same,glycan array binding signal (z-score),[29],0.555
same,glycan array binding signal (z-score),[30],-0.224
same,glycan array binding signal (z-score),[31],-0.292
same,glycan array binding signal (z-score),[32],-0.287
same,glycan array binding signal (z-score),[33],-0.297
same,glycan array binding signal (z-score),[34],-0.29
same,glycan array binding signal (z-score),[35],-0.21
same,glycan array binding signal (z-score),[36],-0.268
same,glycan array binding signal (z-score),[37],-0.202
same,glycan array binding signal (z-score),[38],-0.059
same,glycan array binding signal (z-score),[39],-0.145
same,glycan array binding signal (z-score),[40],-0.194
same,glycan array binding signal (z-score),[41],-0.191
same,glycan array binding signal (z-score),[42],-0.054
same,glycan array binding signal (z-score),[43],-0.065
same,glycan array binding signal (z-score),[44],0.002
same,glycan array binding signal (z-score),[45],-0.218

# — the supplement of paper PMC8728848
